This is one part of the list. The data describe in vitro nicking of single-stranded DNA by Rep domains at 3 µM enzyme and 37 °C for 1 h; the strands have 90 letters, of which the middle is given. Uncut reads are compared with the no-enzyme pool on a log2 scale; strong cutting gives strongly negative numbers. There is no active / inactive call. Shares of all reads are compared; values above 0 arise when much of the pool is cut.

Holding throughout (test): uncleaved DNA left, log2 of reads against the no-enzyme library (log2 ratio); higher = less cleavage (more negative = more Rep cleavage of the k-mer); sequences stand for … in CTCGTCCG…ACCGGAGA
Assay [1] deals with T1, Rep nickase domain of Muscovy duck circovirus.
T1 sequence (residues 1-111 of Rep, tag left off): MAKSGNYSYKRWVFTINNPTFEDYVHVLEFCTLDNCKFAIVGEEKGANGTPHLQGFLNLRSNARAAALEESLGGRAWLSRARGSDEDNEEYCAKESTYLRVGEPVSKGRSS
As for the experimental part:
(§1)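 A pool of 90-nt single-stranded DNAs with seven random bases just before the constant AC of the nick site (name = the seven bases) was cut by 3 µM recombinant His6-SUMO-tagged Rep nickase domain (300 nM DNA, 50 mM HEPES pH 8.0, 50 mM NaCl, 1 mM MnCl2, 1 h, 37 °C, three replicates). Uncut DNA was amplified and sequenced.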

For assay [2], the system named is T2, Rep nickase domain of banana bunchy top virus.
T2 sequence (residues 1-94 of Rep, tag left off): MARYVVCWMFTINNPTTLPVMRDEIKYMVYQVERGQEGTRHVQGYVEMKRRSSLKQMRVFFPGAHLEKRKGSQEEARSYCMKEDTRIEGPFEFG
As for the experimental part: as §1
The test system of assay [3] is T3, Rep nickase domain of cabbage leaf curl virus.
T3 sequence (residues 1-116 of Rep, tag left off): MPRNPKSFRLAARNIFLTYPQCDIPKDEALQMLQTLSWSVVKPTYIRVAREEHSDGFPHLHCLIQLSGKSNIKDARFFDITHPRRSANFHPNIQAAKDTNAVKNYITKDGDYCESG
The procedure: as §1
Assay [4] deals with T4, Rep nickase domain of chickpea chlorotic dwarf virus.
T4 sequence (residues 1-124 of Rep, tag left off): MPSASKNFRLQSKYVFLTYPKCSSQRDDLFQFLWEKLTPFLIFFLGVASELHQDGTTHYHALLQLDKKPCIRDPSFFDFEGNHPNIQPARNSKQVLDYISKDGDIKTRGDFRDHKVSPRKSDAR
As for the experimental part: as §1
Assay [5] deals with T5, Rep nickase domain of faba bean necrotic yellows virus.
T5 sequence (residues 1-98 of Rep, tag left off): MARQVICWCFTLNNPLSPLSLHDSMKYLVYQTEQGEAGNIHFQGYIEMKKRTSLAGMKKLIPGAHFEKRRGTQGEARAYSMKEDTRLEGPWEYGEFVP
The procedure:
as §1

Assay [6] has as its system T6, Rep nickase domain of maize striate mosaic virus.
T6 sequence (residues 1-117 of Rep, tag left off): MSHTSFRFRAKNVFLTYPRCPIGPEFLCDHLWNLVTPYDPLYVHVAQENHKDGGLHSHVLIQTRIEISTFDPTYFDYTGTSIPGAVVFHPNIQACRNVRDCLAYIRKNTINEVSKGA
As for the experimental part: as §1
Assay [7] concerns T7, Rep nickase domain of porcine circovirus 2.
T7 sequence (residues 2-116 of Rep, tag left off): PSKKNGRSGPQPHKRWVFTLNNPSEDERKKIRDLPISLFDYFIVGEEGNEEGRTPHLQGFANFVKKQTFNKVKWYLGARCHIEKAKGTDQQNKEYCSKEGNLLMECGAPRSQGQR
As for the experimental part: as §1
Assay [8] deals with T8, Rep nickase domain of tomato golden mosaic virus.
T8 sequence (residues 1-124 of Rep, tag left off): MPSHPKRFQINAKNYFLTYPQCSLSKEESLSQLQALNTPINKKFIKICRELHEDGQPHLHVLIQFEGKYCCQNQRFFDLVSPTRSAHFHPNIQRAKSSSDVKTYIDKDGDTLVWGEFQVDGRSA
The procedure: as §1
For assay [9], the system named is T9, Rep nickase domain of tomato yellow leaf curl virus.
T9 sequence (residues 1-136 of Rep, tag left off): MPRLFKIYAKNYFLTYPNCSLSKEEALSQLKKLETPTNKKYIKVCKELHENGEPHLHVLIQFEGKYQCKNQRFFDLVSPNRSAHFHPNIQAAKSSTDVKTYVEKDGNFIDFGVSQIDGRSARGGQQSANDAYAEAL
The procedure:
as §1

The subject of assay [10] is T10, Rep nickase domain of wheat dwarf virus.
T10 sequence (residues 1-137 of Rep, tag left off): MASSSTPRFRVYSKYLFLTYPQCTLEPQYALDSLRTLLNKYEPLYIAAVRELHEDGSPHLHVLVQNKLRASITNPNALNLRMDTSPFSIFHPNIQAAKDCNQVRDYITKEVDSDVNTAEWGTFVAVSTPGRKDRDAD
The procedure: as §1

Take AGACTTA: the “uncleaved DNA left (log2)” value in [1] worked out at 0.00258; in assay [2], 0.0877; in assay [3] it was 0.51; in [4] it was 0.657; in assay [5], 0.0592; in assay [6], 1.42. Further, the “uncleaved DNA left (log2)” value in [7] is -0.0541; in [8], -0.0264; in assay [9] it was 0.0753; in assay [10], 0.0671.

For the sequence ACGTTGA, the “uncleaved DNA left (log2)” value in assay [1] is 0.0486; in assay [2] it was 0.0674; in [3] it was -0.144; in assay [4], -0.226; in assay [5], -0.034; in assay [6], -0.743. In addition, the “uncleaved DNA left (log2)” value is 0.201 in assay [7], 0.0569 in assay [8], -0.0588 in assay [9] and 0.0268 in assay [10].

For the sequence GCCAGGC, the “uncleaved DNA left (log2)” value in assay [1] was -0.139; in assay [2] it was -0.0885; in assay [3] it was 0.0318; in [4], 0.262; in assay [5], 0.0514; in [6] it was -0.438. The “uncleaved DNA left (log2)” value in assay [7] was 0.0882; in assay [8], 0.0447; in assay [9], -0.00656; in assay [10], -0.0905.

Turning to TTTTACA, the “uncleaved DNA left (log2)” value is -0.2 in assay [1]; 0.0124 in assay [2]; -0.135 in assay [3]; -2.24 in [4]; 0.097 in [5]; 0.286 in assay [6]. Also, the “uncleaved DNA left (log2)” value was -1.55 in assay [7], -0.0303 in assay [8], 0.0362 in [9] and -0.207 in assay [10].

As for TGAGGCA, the “uncleaved DNA left (log2)” value in [1] is -0.0429; in [2], -0.0335; in [3] it was 0.163; in assay [4], 0.303; in assay [5], -0.051; in assay [6], 0.191. Moreover, the “uncleaved DNA left (log2)” value was -0.0879 in [7], -0.0365 in assay [8], -0.145 in [9] and -0.0557 in assay [10].

For the sequence CTATCAA, the “uncleaved DNA left (log2)” value is 0.0516 in assay [1]; 0.0675 in assay [2]; 0.275 in [3]; 0.572 in assay [4]; 0.0206 in assay [5]; -0.157 in [6]. In addition, the “uncleaved DNA left (log2)” value in assay [7] was 0.108; in assay [8] it was -0.00573; in assay [9] it was 0.168; in assay [10] it was 0.147.

As for TAGTTGA, the “uncleaved DNA left (log2)” value in assay [1] was 0.019; in assay [2], 0.0923; in assay [3] it was 0.059; in assay [4], -0.467; in assay [5] it was 0.153; in assay [6], -0.651. Besides, the “uncleaved DNA left (log2)” value was -2.78 in assay [7], 0.0446 in [8], 0.0975 in assay [9] and 0.0967 in assay [10].

As to TCGCACA, the “uncleaved DNA left (log2)” value in [1] is -0.0504; in assay [2] it was 0.078; in assay [3] it was -0.00505; in assay [4] it was -0.798; in [5], -0.166; in assay [6], -0.402. The “uncleaved DNA left (log2)” value in assay [7] was -0.128; in assay [8] it was 0.0801; in assay [9] it was -0.00687; in assay [10], 0.0387.

AGCCGTT: the “uncleaved DNA left (log2)” value in assay [1] is -0.035; in assay [2], -0.125; in assay [3] it was 0.168; in [4], -0.137; in assay [5], -0.00619; in assay [6], 0.152. Moreover, the “uncleaved DNA left (log2)” value in assay [7] is -0.182; in assay [8], -0.08; in assay [9], -0.0895; in [10] it was -0.133.

For AGACAAC, the “uncleaved DNA left (log2)” value in assay [1] is -0.0111; in assay [2], 0.0535; in [3], 0.41; in [4], 0.349; in assay [5], 0.0289; in assay [6], 1.35. In addition, the “uncleaved DNA left (log2)” value in assay [7] is 0.112; in [8] it was -0.0763; in [9] it was 0.0118; in assay [10] it was 0.0546.

For the sequence GTCAATT, the “uncleaved DNA left (log2)” value in assay [1] turned out to be 0.0567; in [2], 0.122; in assay [3], 0.391; in assay [4], 0.652; in assay [5], 0.0273; in [6] it was 1.66. Also, the “uncleaved DNA left (log2)” value was -0.0274 in assay [7], 0.0652 in assay [8], 0.119 in [9] and 0.181 in assay [10].

As to ATTTCCC, the “uncleaved DNA left (log2)” value in assay [1] is -0.177; in [2], -0.127; in assay [3], -0.124; in assay [4] it was -0.418; in assay [5] it was -0.0638; in assay [6], -0.501. Also, the “uncleaved DNA left (log2)” value in [7] is -0.285; in assay [8], -0.1; in assay [9], -0.124; in assay [10] it was -0.0996.

On to GCGTAGT, for which the “uncleaved DNA left (log2)” value was -0.3 in [1]; 0.151 in assay [2]; 0.201 in assay [3]; 0.31 in assay [4]; -0.0626 in [5]; 0.516 in assay [6]. For the same sequence, the “uncleaved DNA left (log2)” value was -2.55 in assay [7], 0.165 in [8], 0.155 in assay [9] and 0.0901 in assay [10].

On to CCTGTCG, for which the “uncleaved DNA left (log2)” value is -0.113 in assay [1]; -0.124 in assay [2]; -0.782 in assay [3]; -0.268 in assay [4]; 0.0514 in assay [5]; -0.941 in assay [6]. In addition, the “uncleaved DNA left (log2)” value in [7] is -0.0405; in assay [8], -0.178; in assay [9], -0.123; in [10], -0.058.

On to GCAATAC, for which the “uncleaved DNA left (log2)” value was -0.0821 in assay [1]; 0.0839 in [2]; 0.0373 in assay [3]; 0.0567 in [4]; 0.0436 in assay [5]; -0.212 in [6]. Further, the “uncleaved DNA left (log2)” value in [7] is 0.168; in assay [8], 0.0498; in [9], -0.000197; in [10], -0.023.

Source of the values: the supplement of paper PMC7826260.
